Out of some 310,000 compounds screened, about 14,000 (4.5%) showed an effect of 50% or more. Effects have a minus sign here. Some of the results follow.
Each compound was assayed against human ether-à-go-go-related gene (hERG) potassium channel (human, UniProt Q12809) (assay: primary screen, population patch clamp on CHO cells stably expressing hERG).
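Further: peak tail current of the secondary pulse compared with the same well before compound.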

Sequence of human ether-à-go-go-related gene (hERG) potassium channel (Q12809 whole entry, looked up): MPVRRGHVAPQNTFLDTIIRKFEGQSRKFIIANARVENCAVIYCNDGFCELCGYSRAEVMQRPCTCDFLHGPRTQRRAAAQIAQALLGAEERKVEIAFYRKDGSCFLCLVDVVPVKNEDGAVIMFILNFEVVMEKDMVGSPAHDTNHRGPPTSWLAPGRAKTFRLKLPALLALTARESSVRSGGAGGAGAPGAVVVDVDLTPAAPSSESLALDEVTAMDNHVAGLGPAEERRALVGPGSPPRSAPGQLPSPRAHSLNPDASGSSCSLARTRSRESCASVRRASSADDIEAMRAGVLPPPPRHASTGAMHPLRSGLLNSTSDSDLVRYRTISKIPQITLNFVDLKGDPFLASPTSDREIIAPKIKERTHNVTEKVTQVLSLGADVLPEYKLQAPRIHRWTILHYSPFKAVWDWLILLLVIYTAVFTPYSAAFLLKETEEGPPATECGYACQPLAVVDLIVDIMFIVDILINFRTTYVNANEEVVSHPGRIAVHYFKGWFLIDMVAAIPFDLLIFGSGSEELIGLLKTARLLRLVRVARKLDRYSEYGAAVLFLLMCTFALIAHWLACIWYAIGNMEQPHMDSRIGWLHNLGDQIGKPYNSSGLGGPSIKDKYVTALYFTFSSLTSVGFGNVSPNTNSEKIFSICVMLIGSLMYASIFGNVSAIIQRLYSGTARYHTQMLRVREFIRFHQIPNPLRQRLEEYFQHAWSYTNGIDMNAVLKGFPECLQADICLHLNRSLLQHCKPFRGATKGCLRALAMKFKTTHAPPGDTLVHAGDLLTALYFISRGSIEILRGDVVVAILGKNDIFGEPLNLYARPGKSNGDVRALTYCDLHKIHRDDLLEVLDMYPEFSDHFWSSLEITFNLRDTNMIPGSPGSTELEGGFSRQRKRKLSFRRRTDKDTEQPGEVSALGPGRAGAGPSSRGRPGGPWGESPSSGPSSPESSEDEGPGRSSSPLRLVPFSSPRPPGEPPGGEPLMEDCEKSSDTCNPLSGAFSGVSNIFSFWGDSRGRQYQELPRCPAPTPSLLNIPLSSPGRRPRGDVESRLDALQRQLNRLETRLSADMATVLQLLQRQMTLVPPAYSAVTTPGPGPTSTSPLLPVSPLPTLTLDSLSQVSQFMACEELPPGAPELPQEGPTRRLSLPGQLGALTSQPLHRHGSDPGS

Compound	hERG current change (%, negative = inhibition) at 10uM [%]
COc1ccc(NC(=O)CN2C(=O)NC(C)(c3ccccc3)C2=O)cc1Cl (centres unmarked)	-13.2
O=C(Nc1cccc(F)c1)c1ccc(-c2ccccc2Cl)o1	-17.8
Cn1cccc1Cc1nnc(SCC(=O)NCCc2ccccc2)n1C	16.2
Cc1nonc1C1CCCN1Cc1nc(-c2ccc(F)cc2F)oc1C (centres unmarked)	19.8
COC(=O)[C@@H](c1ccccc1)N(C)S(=O)(=O)c1cccc(S(=O)(=O)N(C)[C@@H](C(=O)OC)c2ccccc2)c1	1.05
Cc1cc(-c2n[nH]c(=S)n2/N=C/c2cccc([N+](=O)[O-])c2)n[nH]1	13.6
Cn1c(=O)[nH]c(=O)c2c1nc(CN1CCN(c3cccc(Cl)c3)CC1)n2Cc1ccccc1Cl	-2.1
CCN(CC)c1ccc(CNc2ccc3c(c2)ncn3CC)cc1	-3.33
O=C(Nc1c(-c2ccccc2)nc2ccccn12)c1cccs1	-0.848
O=C(CSC1=NCCS1)Nc1nc(-c2ccccc2)cs1	-4.96
COc1ccc(Cl)cc1S(=O)(=O)N(C)CC(=O)N1CCCC1	-0.48
Cc1onc(-c2ccccc2)c1C(=O)OCC(=O)Nc1ccc(Cl)cc1	6.51
O=C(NCc1ccco1)c1cc(Cl)nc(Cl)c1	8.26
CC(=O)c1ccccc1N(C(=O)Cn1nnc2ccccc21)C(C(=O)NCC1CCCO1)c1ccc(N2CCOCC2)cc1 (centres unmarked)	-2.45
O=C(COc1ccccc1)NCC(c1ccco1)N1CCN(c2ccccc2)CC1 (centres unmarked)	-26.6
O=C(CC1N=C2c3ccccc3N=C(SCc3ccc(Cl)cc3)N2C1=O)NCc1ccco1 (centres unmarked)	-75.3
Cl.NC(Cc1ccc(O)cc1)c1cn([C@@H](CCC(=O)O)C(=O)N2CCNCC2)nn1 (some centres unmarked)	11.5
CC(=O)Nc1ccc(NCN2C(=O)C3C4CCC(C4)C3C2=O)cc1 (centres unmarked)	10.8
O=C(CN1C(=O)NC2(CCCC2)C1=O)Nc1ccc(F)cc1	8.79
CCC(C)(C)C1CCC2(CC1)NC(=O)N(CC(=O)NCCCc1ccccc1)C2=O (centres unmarked)	-14.1
O=C(c1cc2nc(-c3ccc(Cl)cc3)cc(C(F)(F)F)n2n1)N1CCOCC1	-5.58
COC(=O)c1ccc(COC(=O)CNC(=O)c2cccs2)cc1	10.1
Cc1ccc(-n2c(C)cc(-c3csc(N)n3)c2C)cc1.Cl	6.5
O=C(c1ccccc1)N1N=C(c2ccccc2)CC1(O)C(F)(F)F (centres unmarked)	-14.3

Compound	hERG current change (%, negative = inhibition) at 10uM [%]
O=C(NCCN1CCN(S(=O)(=O)c2ccc([N+](=O)[O-])cc2)CC1)C(=O)Nc1ccccc1	13.5
COc1ccc(Cl)cc1NC(=S)NCCc1c[nH]c2ccccc12	-12.5
COc1ccc2oc(=O)c(C(=O)n3ccc(C)n3)cc2c1	-9.2
CCC(OC(=O)CN1C(=O)c2ccccc2C1=O)C(=O)NC1CCCC1 (centres unmarked)	-0.744
COc1ccc(C(=O)OC/C(O)=C(\C#N)c2nc3ccccc3[nH]2)cc1S(=O)(=O)N1CCOCC1	-1.23
CCOC(=O)C1=C(CN2CCC(C)CC2)NC(=O)NC1c1ccc(Cl)cc1 (centres unmarked)	-37.6
COc1ccc(C(=O)N2CCC(n3nccc3NC(=O)C3CCOC3)CC2)cc1 (centres unmarked)	7.99
O=C(NCc1cccnc1)c1ccc([N+](=O)[O-])o1	10.3
O=C1NC(c2ccccc2)C(C(=O)c2cccs2)C(O)(C(F)(F)F)N1 (centres unmarked)	-7.57
Clc1ccc(-c2csc(N3CCC(c4ccccc4)C3)n2)cc1 (centres unmarked)	12.5
Cc1ccccc1OCC(=O)OCC(=O)Nc1ccc(Cl)cn1	11.2
O=C(Nc1cccc(-c2nc3cccnc3s2)c1)c1ccc(Cl)nc1	10.4
Cc1ccccc1OCC(=O)OCC(=O)N1CCCc2ccccc21	4.34
Cn1c(=O)c2c(nc3n2CC(O)CN3c2ccc(O)cc2)n(C)c1=O (centres unmarked)	20
Cc1cc(C)n(-c2ccc(Cl)c(C(=O)NCc3ccccc3)n2)n1	18.6
Cn1c(Cn2c(=O)sc3ccccc32)nnc1SCC(N)=O	-31.1
COc1ccc(Cl)cc1N(CC(=O)NC1CC2CCC1C2)S(=O)(=O)c1ccccc1 (centres unmarked)	-31.5
CC(C)CCN1CCN(Cc2cccc(C(F)(F)F)c2)CC1CCO (centres unmarked)	-55.1
COc1cc(C(=O)OCCCN2CCCN(CCCOC(=O)c3cc(OC)c(OC)c(OC)c3)CC2)cc(OC)c1OC.Cl	-67.8
COc1ccc(NC2=CC(=S)NC(C)(C)C2)cc1	16.4
O=C(CSc1nnc(-c2ccc(Cl)cc2)o1)NNC(=O)c1ccncc1	5.53
COC(=O)c1ccc2c(c1O)C(=O)c1ccccc1C2=O	-12.8
O=C(Cc1ccccc1)NCC(=O)Nc1ccc(OC(F)(F)F)cc1	12.5
